Reference: PMC5515408
The other results are listed elsewhere or left out. At the low end of the ranking the order means little.

System: MYC (p64) + MAX (p21), in MYC:MAX
Experiment: protein-binding microarray (anti-MAX antibody)
Conditions: PBM: 15 mM Tris-HCl pH 7.5, 100 mM KCl, 0.075% NP40, 7.5 mM beta-mercaptoethanol, 375 ng/ul BSA, 8 ng/ul poly(dA-dT):(dA-dT), 550 ng complex, 60 min, room …; high values mean tight binding; double strand, one strand shown; sequences stand for … in CCGGC…TTAATAGCTAAGATTACTATATCGACG

| Sequence | binding signal (log2 normalized fluorescence) |
| --- | --- |
| TGAGAAACTGTA | -0.0537 |
| TGATACGATGTA | 0.0769 |
| TGACTTGGCGTA | 0.258 |
| TGACAAATGGTG | 0.43 |
| TGAACGTGGGTA | 0.615 |
| TGACCTACTGTA | 0.184 |
| TGACTGATGGTA | 0.272 |
| TGAGCGCCCGTA | 0.171 |
| TGAGTGCCGGTA | 0.167 |
| TGATAGAAAGTA | -0.0501 |
| TGAGATGTCGTA | 0.0274 |
| TGACTCGAGGAA | 0.209 |
| TGAGATGCGGTA | 0.155 |
| TGAAGCACGGTA | 0.316 |
| TGATTAAAGGTA | -0.106 |
| TGATTTAAGGTA | -0.132 |
| TGAGGACGTGTA | 0.195 |
| TGACACATGGCA | 0.478 |
| TGACGACACGTA | 0.2 |
| TGATCAATTGTA | 0.00363 |
| TGACCCGTGGCA | 0.345 |
| TGATCTGGAGTA | -0.15 |
| TTACACGTGGGA | 0.81 |

| Sequence | binding signal (log2 normalized fluorescence) |
| --- | --- |
| TGACGTACAGTA | 0.112 |
| TGAATAGTGGTA | 0.0384 |
| TGACCATAAGTA | 0.383 |
| TGAGGCACTGTA | 0.054 |
| TGAAACCAGGTA | 0.0832 |
| TGATCCTTTGTA | -0.0551 |
| TGACGGCGGGTA | -0.0424 |
| TGATCCTAAGTA | -0.181 |
| TGAAGCAATGTA | 0.157 |
| TGACTCGCCGTA | 0.252 |
| TGACACGTGCCA | 1 |
| TGAAAACTGGTA | -0.086 |
| TAACACGCGGTC | 0.739 |
| TGACGAGAAGTA | 0.0206 |
| TGACACGGCGTC | 0.151 |
| TATCACGTGGTA | 0.71 |
| TGAGGAAAGGTA | 0.0707 |
| TGACGACAAGTA | 0.0769 |
| TCACCCGTGGTT | 0.535 |
| TGAAAAACCGTA | -0.00466 |
| TGATCCGACGTA | -0.168 |
| TGAATTTCAGTA | 0.0268 |
| TGATCGGTTGTA | -0.0422 |

| Sequence | binding signal (log2 normalized fluorescence) |
| --- | --- |
| TGACTCAACGTA | 0.24 |
| TGATTACTGGTA | -0.0694 |
| TGAACGACGGTA | 0.0897 |
| TGAAAAAACGTA | 0.215 |
| TGAATCAATGTA | 0.252 |
| TGACTCGTTGTA | 0.324 |
| ACTTACCTCCGG | 0.212 |
| TGACCCTTGTTA | -0.028 |
| TGAATTGGGGTA | 0.0325 |
| TGAGAGCACGTA | 0.466 |
| TGATCAAACGTA | -0.00944 |
| TGACATTGTGTA | 0.454 |
| TGAAGGCTTGTA | 0.0378 |
| TTTGACGTGGTA | 0.393 |
| TGACACGTCGGA | 0.32 |
| TGAGGGAGAGTA | -0.0403 |
| TGAGAATTCGTA | -0.123 |
| TGAGGCCTTGTA | 0.083 |
| TGAGAGTGTGTA | 0.186 |
| TGATTGTGAGTA | 0.0653 |
| TGAAAACCAGTA | 0.033 |
| TGAGATTACGTA | -0.066 |
| TGAACCTGTGTA | 0.332 |

| Sequence | binding signal (log2 normalized fluorescence) |
| --- | --- |
| TGAAGGAACGTA | -0.0658 |
| TGAATTGCCGTA | 0.182 |
| TGAAAGGTCGTA | 0.0812 |
| AGTAGGGTTGAC | 0.18 |
| TGACCTAGCGTA | 0.148 |
| TGACATGCGGAA | 0.337 |
| TGATGCCAGGTA | 0.0211 |
| TGAACTTCTGTA | 0.115 |
| TGAACATTAGTA | 0.207 |
| TGAGTACCGGTA | -0.165 |
| TGATACGGTGTA | 0.0498 |
| TGATATCCCGTA | -0.0527 |
| TGATGAACAGTA | -0.0341 |
| TGATTTGTCGTA | -0.0969 |
| TTACACCTGGGA | 0.324 |
| TGAGCCTCCGTA | -0.0648 |
| TGACATGAAGTA | 0.276 |
| TGAGAACCAGTA | -0.0272 |
| AGCCACGTGGTA | 0.908 |
| TGACGGGGCGTA | 0.37 |
| TGAAAGGCTGTA | 0.0112 |
| TGAATCGAAGTA | -0.0208 |
| TGAATGAAAGTA | 0.156 |

| Sequence | binding signal (log2 normalized fluorescence) |
| --- | --- |
| TGCCACGTGGTG | 0.763 |
| TGAGGTCGCGTA | 0.0221 |
| TGACGTAAAGTA | 0.132 |
| TGAGTGGGTGTA | 0.257 |
| TGAGTGGTGGTA | 0.28 |
| TGACGGTGAGTA | 0.154 |
| TGATTGTCGGTA | -0.0618 |
| TGAGGGTCGGTA | 0.137 |
| TGAATCGAGGTA | 0.273 |
| TGAGACCGCGTA | 0.176 |
| TGAGTGCGGGTA | 0.213 |
| TGGGCCGTGGTA | 0.0925 |
| TGAGACGAAGTA | 0.0305 |
| TGAACTCATGTA | 0.469 |
| TCAAAGGCCTTA | -0.0783 |
| TGTCACGTGGCA | 0.795 |
| TATGACGTGGTA | 0.398 |
| TGACCGGGGGTA | 0.631 |
| TGAAGCAACGTA | 0.212 |
| TGACAGGTTGCA | 0.264 |
| TGACCGCCAGTA | 0.192 |
| TGAGATGATGTA | 0.0753 |
| AGACACATGGGA | 0.468 |

| Sequence | binding signal (log2 normalized fluorescence) |
| --- | --- |
| TGAGTGGAAGTA | -0.0931 |
| TGACCAACGGTA | 0.052 |
| TGAGTCCTAGTA | -0.104 |
| TGACGTATCGTA | 0.11 |
| TGACCCGTTGAA | 0.151 |
| TGATTAGAAGTA | -0.155 |
| TGACACGCGTTA | 0.755 |
| TGAACGGGGGTA | 0.584 |
| CGAGACGTAGTT | -0.0298 |
| TGACACGTTCGA | 0.447 |
| TGATAGGTAGTA | -0.0712 |
| TGACTTCCCGTA | -0.0132 |
| TGACGCTTGGTA | 0.103 |
| TGAGGTGAGGTA | 0.213 |
| TGACACGTTGTT | 0.604 |
| TGACTAGTGGTA | 0.119 |
| TGATAATCTGTA | -0.0215 |
| TGATGAGTTGTA | 0.12 |
| TGACATGAGTTA | 0.335 |
| TGATGAACGGTA | 0.0578 |
| TGACAATCTGTA | 0.125 |
| TGAGATCCGGTA | 0.012 |
| TGAGGAGGCGTA | -0.0643 |
